This is an account of results in the supplement of paper PMC6451100.

The other results are listed elsewhere or left out. Values come from read counts of a selection and are noisy.
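Further: S2-R+ lysate came from cells stably expressing FLAG-tagged AGO2, enrichment per 5N variant computed with FASTAptamer, reads lacking the constant 3′ segment discarded.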

The assay has as its system Drosophila AGO1 (endogenous, S2-R+ lysate). Briefly: AGO1 loading enrichment factor (IP read count / input read count, not library-size normalised) (ratio); higher = more efficient loading into AGO1. Particulars: randomized region: 5' 5N of miR-317 loop. As to the method:
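HISSA: 5'-phosphorylated, 32P-labelled 20-nt ssRNA oligos (miR-317 loop, first 5 nt randomized, constant 3' part TGAAATGCAAGCAAG as printed in methods; DNA letters for RNA) incubated 1 h at 25°C in S2-R+ cell lysate. Endogenous AGO1 was immunopurified with anti-AGO1 and bound oligos were sequenced after splinted ligation.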
Consider GTGCCTGAAATGCAAGCAAG, for which the “AGO1 loading enrichment factor” value worked out at 0.211.
ATGGTTGAAATGCAAGCAAG: the “AGO1 loading enrichment factor” value amounted to 0.259.
In the case of CCTGATGAAATGCAAGCAAG, the “AGO1 loading enrichment factor” value turned out to be 0.034.
Turning to TTCGGTGAAATGCAAGCAAG, the “AGO1 loading enrichment factor” value came out at 0.376.
Then TTCTCTGAAATGCAAGCAAG, with 0.225.
The figure for CGGCGTGAAATGCAAGCAAG is 0.153.
For the sequence TTCAGTGAAATGCAAGCAAG, the “AGO1 loading enrichment factor” value amounted to 0.386.
For TGCTATGAAATGCAAGCAAG, the “AGO1 loading enrichment factor” value was found to be 0.207.
Then ACAACTGAAATGCAAGCAAG, with 0.175.
Consider AGGTTTGAAATGCAAGCAAG, for which the “AGO1 loading enrichment factor” value worked out at 0.0606.
Take CCCCCTGAAATGCAAGCAAG: the “AGO1 loading enrichment factor” value worked out at 0.2.
Regarding CATCGTGAAATGCAAGCAAG, the “AGO1 loading enrichment factor” value was determined as 0.113.
The figure for CGCTGTGAAATGCAAGCAAG is 0.0314; for AGATATGAAATGCAAGCAAG it is 0.107.
CCTGCTGAAATGCAAGCAAG: the “AGO1 loading enrichment factor” value turned out to be 0.0086.
Take GGATATGAAATGCAAGCAAG: the “AGO1 loading enrichment factor” value was 0.117.
GCTACTGAAATGCAAGCAAG: the “AGO1 loading enrichment factor” value stood at 0.0632.
TGGTGTGAAATGCAAGCAAG: the “AGO1 loading enrichment factor” value is 0.199.
Consider GGCAATGAAATGCAAGCAAG, for which the “AGO1 loading enrichment factor” value amounted to 0.108.
Then GTACATGAAATGCAAGCAAG, with 0.188; and TACGGTGAAATGCAAGCAAG, with 0.486.
Turning to AAAGGTGAAATGCAAGCAAG, the “AGO1 loading enrichment factor” value came to 0.158.
On to GGCATTGAAATGCAAGCAAG, for which the “AGO1 loading enrichment factor” value was 0.0739.
On to CTAAATGAAATGCAAGCAAG, for which the “AGO1 loading enrichment factor” value amounted to 0.129.
With AGTGGTGAAATGCAAGCAAG, the “AGO1 loading enrichment factor” value was found to be 0.297.
TCACTTGAAATGCAAGCAAG: the “AGO1 loading enrichment factor” value came out at 1.1.
As for TTTTCTGAAATGCAAGCAAG, the “AGO1 loading enrichment factor” value stood at 0.25.
Consider TGATGTGAAATGCAAGCAAG, for which the “AGO1 loading enrichment factor” value came to 0.15.
In the case of AGCGTTGAAATGCAAGCAAG, the “AGO1 loading enrichment factor” value came to 0.0823.
The figure for AGCTGTGAAATGCAAGCAAG is 0.0535; for AACGATGAAATGCAAGCAAG it is 0.298.
With CAGGATGAAATGCAAGCAAG, the “AGO1 loading enrichment factor” value is 0.186.
Turning to GCCTGTGAAATGCAAGCAAG, the “AGO1 loading enrichment factor” value turned out to be 0.0232.
The figure for ATAAATGAAATGCAAGCAAG is 0.155; for AGAGATGAAATGCAAGCAAG it is 0.132.
The figure for AAATTTGAAATGCAAGCAAG is 0.077; for AGCCGTGAAATGCAAGCAAG it is 0.154; for TCGCTTGAAATGCAAGCAAG it is 0.87.
For TAGATTGAAATGCAAGCAAG, the “AGO1 loading enrichment factor” value came out at 0.322.
In the case of GTATTTGAAATGCAAGCAAG, the “AGO1 loading enrichment factor” value amounted to 0.0812.
For the sequence GGGTGTGAAATGCAAGCAAG, the “AGO1 loading enrichment factor” value was 0.59.
Take GTCGCTGAAATGCAAGCAAG: the “AGO1 loading enrichment factor” value was 0.0764.
For GCCGGTGAAATGCAAGCAAG, the “AGO1 loading enrichment factor” value amounted to 0.117.
For TAGTCTGAAATGCAAGCAAG, the “AGO1 loading enrichment factor” value came to 0.418.
For TATGTTGAAATGCAAGCAAG, the “AGO1 loading enrichment factor” value was 0.334.
For the sequence TCACATGAAATGCAAGCAAG, the “AGO1 loading enrichment factor” value came to 0.381.
CCAACTGAAATGCAAGCAAG: the “AGO1 loading enrichment factor” value is 0.178.
The figure for AGTCATGAAATGCAAGCAAG is 0.126.
Turning to TCTGGTGAAATGCAAGCAAG, the “AGO1 loading enrichment factor” value is 0.331.
Take CCGCATGAAATGCAAGCAAG: the “AGO1 loading enrichment factor” value is 0.0573.
Turning to CGTCTTGAAATGCAAGCAAG, the “AGO1 loading enrichment factor” value amounted to 0.00399.
With ATTCCTGAAATGCAAGCAAG, the “AGO1 loading enrichment factor” value was 0.37.
For the sequence TAAGGTGAAATGCAAGCAAG, the “AGO1 loading enrichment factor” value was determined as 0.379.
For the sequence ACCAGTGAAATGCAAGCAAG, the “AGO1 loading enrichment factor” value is 0.214.
Then TGATCTGAAATGCAAGCAAG, with 0.23; and GATTTTGAAATGCAAGCAAG, with 0.172; and CTATGTGAAATGCAAGCAAG, with 0.0429.
ACTCATGAAATGCAAGCAAG: the “AGO1 loading enrichment factor” value came out at 0.247.
For TAACGTGAAATGCAAGCAAG, the “AGO1 loading enrichment factor” value turned out to be 0.365.
For the sequence CGAGGTGAAATGCAAGCAAG, the “AGO1 loading enrichment factor” value is 0.29.
Regarding GCCGATGAAATGCAAGCAAG, the “AGO1 loading enrichment factor” value came to 0.17.
GCCAATGAAATGCAAGCAAG: the “AGO1 loading enrichment factor” value worked out at 0.132.
As to AATCCTGAAATGCAAGCAAG, the “AGO1 loading enrichment factor” value was 0.375.
The figure for CTTTTTGAAATGCAAGCAAG is 0.0868.
The figure for GTTCATGAAATGCAAGCAAG is 0.217; for GACGGTGAAATGCAAGCAAG it is 19.
For the sequence AGTGTTGAAATGCAAGCAAG, the “AGO1 loading enrichment factor” value worked out at 0.108.
As to AGGTCTGAAATGCAAGCAAG, the “AGO1 loading enrichment factor” value amounted to 0.164.
Turning to CCGATTGAAATGCAAGCAAG, the “AGO1 loading enrichment factor” value was 0.171.
In the case of CCCCGTGAAATGCAAGCAAG, the “AGO1 loading enrichment factor” value was found to be 0.0175.
On to CATTTTGAAATGCAAGCAAG, for which the “AGO1 loading enrichment factor” value was 0.0136.
Take TCCTATGAAATGCAAGCAAG: the “AGO1 loading enrichment factor” value turned out to be 0.185.
Take AGGATTGAAATGCAAGCAAG: the “AGO1 loading enrichment factor” value came to 0.133.
As for ATTGCTGAAATGCAAGCAAG, the “AGO1 loading enrichment factor” value is 0.115.
The figure for TACTCTGAAATGCAAGCAAG is 0.167.
Turning to CGAAGTGAAATGCAAGCAAG, the “AGO1 loading enrichment factor” value came to 0.0901.
The figure for GTAACTGAAATGCAAGCAAG is 0.115; for TAGTGTGAAATGCAAGCAAG it is 0.27.
GGGAATGAAATGCAAGCAAG: the “AGO1 loading enrichment factor” value came to 0.392.
As to AGTGATGAAATGCAAGCAAG, the “AGO1 loading enrichment factor” value was determined as 0.228.
The figure for ACAGCTGAAATGCAAGCAAG is 0.0331; for TTATCTGAAATGCAAGCAAG it is 0.0825.
Consider CCGAATGAAATGCAAGCAAG, for which the “AGO1 loading enrichment factor” value is 0.222.
The figure for CGCAGTGAAATGCAAGCAAG is 0.021.
For the sequence GCCCATGAAATGCAAGCAAG, the “AGO1 loading enrichment factor” value worked out at 0.0204.
CCATTTGAAATGCAAGCAAG: the “AGO1 loading enrichment factor” value stood at 0.151.
Take TATATTGAAATGCAAGCAAG: the “AGO1 loading enrichment factor” value was 0.278.
With TAATCTGAAATGCAAGCAAG, the “AGO1 loading enrichment factor” value turned out to be 0.339.
For TTATTTGAAATGCAAGCAAG, the “AGO1 loading enrichment factor” value was 0.235.
As for CCACGTGAAATGCAAGCAAG, the “AGO1 loading enrichment factor” value stood at 0.245.
Take GCGTTTGAAATGCAAGCAAG: the “AGO1 loading enrichment factor” value was found to be 0.0387.
The figure for TCCGGTGAAATGCAAGCAAG is 0.24.
For TCGTATGAAATGCAAGCAAG, the “AGO1 loading enrichment factor” value was 0.133.
In the case of ATATGTGAAATGCAAGCAAG, the “AGO1 loading enrichment factor” value was 0.139.
Then AGCTCTGAAATGCAAGCAAG, with 0.0788.
In the case of GTAATTGAAATGCAAGCAAG, the “AGO1 loading enrichment factor” value was 0.16.
TCGCGTGAAATGCAAGCAAG: the “AGO1 loading enrichment factor” value turned out to be 0.439.
The figure for TCTTATGAAATGCAAGCAAG is 0.0931; for GCAATTGAAATGCAAGCAAG it is 0.052.
